The text below walks through data of patent US20220389066A1, “POLYPEPTIDES” (Affibody AB, priority 2019, published 2022).

Data set [1] deals with T1, HMGB1(red) (Rattus norvegicus, UniProt P63159).
T1 construct: purchased HMGBiotech Srl, Milano, Italy
T1 sequence (P63159 2-215): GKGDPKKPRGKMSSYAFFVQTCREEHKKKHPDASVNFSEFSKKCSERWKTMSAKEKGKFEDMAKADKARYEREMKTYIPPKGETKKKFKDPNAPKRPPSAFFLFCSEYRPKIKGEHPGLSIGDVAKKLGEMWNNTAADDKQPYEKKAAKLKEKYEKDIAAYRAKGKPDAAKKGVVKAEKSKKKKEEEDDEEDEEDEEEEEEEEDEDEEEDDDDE
The data set is described as follows: In vitro cell migration assay, mouse 3T3 fibroblasts in modified Boyden chambers. The class given is cell-based. As to conditions: 1 nM or 0.2 nM HMGB1(red), 3 h. On the procedure: In vitro cell migration assay: Mouse 3T3 fibroblast cells were used to assess the ability of His6-tagged Z variants to inhibit migration of cells in response to HMGB1 in modified Boyden Chambers (Neuroprobe Inc.). Mouse 3T3 fibroblasts were grown in Dulbecco's Modified Eagle Medium (DMEM, Gibco) with 10% fetal bovine serum (FBS, Gibco), 1% L-glutamine and antibiotics (Lonza). Prior to use, cells were centrifuged and the pellet was resuspended in DMEM (without FBS) without further washing. Polycarbonate filters (Neuroprobe Inc.; #PFA8) with 8 μm pores were coated with human fibronectin (Roche). Serum-free DMEM (negative control), DMEM containing 1 nM HMGB1(red) (positive control), and DMEM containing 1 nM HMGB1(red) plus Z variants ZH 01 (SEQ ID NO:1) and ZH 31 (SEQ ID NO:31) at a concentration of 10 or 100 ng/ml, were placed in the lower wells. A control polypeptide, Z04726 (SEQ ID NO:54), binding an irrelevant target, was used as negative control. boxA(red) (SEQ ID NO:51), a known competitor of HMGB1, was used at 1 nM concentration as positive control for inhibition of HMGB1 induced cell migration. Fibronectin-coated filters were placed so as to separate the lower and the upper wells, and 50000 3T3 cells were placed in the upper wells. The chambers were kept at 37° C. in a 5% CO2, humidified incubator for 3 h. The cells were then fixed with 100% ethanol (Sigma) and stained 20 minutes with Giemsa Stain (Sigma). The cells on the lower side of the filter were counted with a Leica DM LS2 microscope at 400× magnification.
ZH 30 was tested in a migration assay by performing an extended titration to allow IC50 calculations with 0.2 nM HMGB1(red) and lower concentrations of Z variants (0.1 ng/ml, 0.3 ng/ml, 1 ng/ml). A control polypeptide, ZZA4014 (SEQ ID NO:49), binding an irrelevant target and cloned and produced as described in Example 4, was used as negative control in this set up.
In vitro cell migration assay: The migration assay was performed essentially as described for monomeric Z variants in Example 3. One monomeric Z-ABD polypeptide, ZA3812 (SEQ ID NO:35); five heterodimeric polypeptides, ZZA4010 (SEQ ID NO:38), ZZA4011 (SEQ ID NO:39), ZZA4012 (SEQ ID NO:40), ZZA4013 (SEQ ID NO:41) and ZAZ4015 (SEQ ID NO:42); and three homodimeric polypeptides, ZZA4053 (SEQ ID NO:43), ZZA4054 (SEQ ID NO:44) and AZ4057 (SEQ ID NO:45), were tested in a migration assay by performing an extended titration, to allow IC50 calculations with 0.2 nM HMGB1 and reducing doses of polypeptides (0.1 nM, 0.3 nM, 1 nM). ZZA4014 (SEQ ID NO:49), binding an irrelevant target, was included as a negative control.

The target of data set [2] is T2, HMGB1(red) (Rattus norvegicus, UniProt P63159).
T2 construct: purchased HMGBiotech Srl, Milano, Italy
T2 sequence (P63159 1-215): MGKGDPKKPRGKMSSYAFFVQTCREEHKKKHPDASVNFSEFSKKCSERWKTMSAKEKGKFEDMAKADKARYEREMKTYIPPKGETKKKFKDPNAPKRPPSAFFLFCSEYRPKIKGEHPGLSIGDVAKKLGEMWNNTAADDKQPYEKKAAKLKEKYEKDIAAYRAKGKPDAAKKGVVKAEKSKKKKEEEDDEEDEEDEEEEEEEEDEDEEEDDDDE
The data set is described as follows: Biacore binding analysis of mutated Z variants, immobilized HMGB1(red). Particulars: His6-tagged Z variant as analyte; HBS-EP + 2 mM DTT; 1:1 model. As to the method: (§1) Binding analysis of mutated Z variants: A binding analysis was performed using a Biacore 2000 instrument. All alanine mutated Z variants, together with the original Z variant ZH 01, were analyzed against GST-boxA(red), HMGB1(red), boxA(disulfide) and HMGB1(disulfide). The immobilizations and Biacore analyses were performed essentially as described in Example 3. However, in these analyses, the different targets were directly coupled to separate flow cells of different CM5 chip surfaces and a flow rate of 30 μl/min was used. The ligand immobilization levels on the surfaces were 1410 RU for GST-boxA(red), 1380 RU for HMGB1(red), 540 RU for boxA(disulfide) and 2900 RU for HMGB1(disulfide). The analytes, i.e. the Z variants, were each diluted in HBS-EP buffer (or in HBS-EP+2 mM DTT for use in analysis with reduced targets GST-boxA(red) and HMGB1(red)), within a concentration range of 50 to 1350 nM and injected for 3 min, followed by dissociation in running buffer for 35 min. No regeneration buffer was used in the analyses. Instead, the dissociation time was enough for all binders to dissociate from the chip surfaces. HBS-EP was used as running buffer for targets boxA(disulfide) and HMGB1(disulfide) while HBS-EP+2 mM DTT was used for reduced targets GST-boxA(red) and HMGB1(red). The dissociation constants were calculated as in Example 3.

For another data set, the target named is T3, HMGB1(disulfide) (Rattus norvegicus, UniProt P63159).
T3 construct: purchased HMGBiotech Srl, Milano, Italy
T3 sequence (P63159 1-215): T2 sequence (P63159 1-215)
As to the kind of experiment: Biacore binding analysis of mutated Z variants, immobilized HMGB1(disulfide). Particulars: His6-tagged Z variant as analyte; HBS-EP; 1:1 model. As to the method:
as §1
A general note: In SPR one partner is held on a chip, and binding of the other changes the refractive index at the surface.

A short description of data set [3]: Circular dichroism (CD) spectroscopy, variable temperature measurement. The class given is physicochemical. Particulars: His6-tagged Z variants; CD at 221 nm, 20 to 80-90° C. On the procedure:
Circular dichroism (CD) spectroscopy analysis: The His6-Z variants produced in Example 2 were diluted to 25 μM in PBS or H2O. A CD spectrum at 250-195 nm was obtained at 20° C. In addition, a variable temperature measurement (VTM) was performed to determine the melting temperature (Tm). In the VTM, absorbance was measured at 221 nm while the temperature was raised from 20° C. to 80° C. (in some cases to 90° C.), with a temperature slope of 5° C./min. A new CD spectrum was obtained at 20° C. after the heating procedure, in order to study the refolding ability of the Z variants. The CD measurements were performed on a Jasco J-810 spectropolarimeter (Jasco Scandinavia AB) using a cell with an optical path length of 1 mm.
Circular dichroism (CD) spectroscopy analysis: The measurements were performed essentially as described in Example 3.
(In general: Circular dichroism is widely used to follow secondary structure.)

The next data set addresses T4, GST-boxA(red) (Homo sapiens, UniProt P09429).
T4 construct: purchased HMGBiotech Srl, Milano, Italy
The data set is described as follows: Biacore binding analysis of mutated Z variants, immobilized GST-boxA(red). Particulars: His6-tagged Z variant as analyte; HBS-EP + 2 mM DTT; 1:1 model. As to the method:
as §1

A further data set addresses T5, boxA(disulfide) (Homo sapiens, UniProt P09429).
T5 construct: purchased HMGBiotech Srl, Milano, Italy
T5 sequence (P09429 1-89): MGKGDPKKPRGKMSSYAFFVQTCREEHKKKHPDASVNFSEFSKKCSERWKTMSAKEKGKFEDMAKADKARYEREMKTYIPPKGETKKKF
The data set is described as follows: Biacore binding analysis of mutated Z variants, immobilized boxA(disulfide). As to conditions: His6-tagged Z variant as analyte; HBS-EP; 1:1 model. On the procedure:
as §1

pKd: −log10 of the molar value.

T4 sequence (P09429 with tags, fused parts or gaps): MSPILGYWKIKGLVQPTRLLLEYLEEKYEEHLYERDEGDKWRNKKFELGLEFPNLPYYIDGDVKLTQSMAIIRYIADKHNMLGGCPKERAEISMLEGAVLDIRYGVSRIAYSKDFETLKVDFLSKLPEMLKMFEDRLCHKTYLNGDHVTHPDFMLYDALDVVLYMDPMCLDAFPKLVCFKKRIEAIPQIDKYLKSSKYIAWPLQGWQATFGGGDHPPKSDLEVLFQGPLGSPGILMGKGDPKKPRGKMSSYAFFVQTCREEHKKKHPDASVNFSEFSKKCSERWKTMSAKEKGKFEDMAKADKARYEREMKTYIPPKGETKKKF

In the case of “Z04726: control polypeptide binding an irrelevant target, used as negative control (VDAKYAKELGWATWEIFNLPNLTGVQVKAFIDKLRDDPSQSSELLSEAKKLNDSQAPK; Engineered negative control polypeptide) [reference compound]”, the “inhibition of HMGB1 induced cell migration” value with HMGB1(red) [1] was “no inhibition”.

By pKd is commonly meant the Kd on a negative log10 scale, so that one unit is a factor of ten. For the substance “ZH14: single-point mutation variant of ZH 01, D9A (VDAKYAKEAWDAFWEIIWLPNLTDAQQRAFIYKLEDDPSQSSELLSEAKKLNDSQAPK; Engineered HMGB1 binding polypeptide)”, the pKd was 7.74 with HMGB1(red) [2], 6.82 in the data set with HMGB1(disulfide), 7.44 with GST-boxA(red) and 6.11 with boxA(disulfide). In addition, the “Tm (° C.)” value in data set [3] is 59 °C.

For “ZH15: single-point mutation variant of ZH 01, W10A (VDAKYAKEDADAFWEIIWLPNLTDAQQRAFIYKLEDDPSQSSELLSEAKKLNDSQAPK; Engineered HMGB1 binding polypeptide)”, the results for the pKd in the data set with HMGB1(red) [2] and in the data set with HMGB1(disulfide) were 6.24 and 4.92, respectively. The “Tm (° C.)” value in data set [3] is 44 °C.

Take “ZH16: single-point mutation variant of ZH 01, D11A (VDAKYAKEDWAAFWEIIWLPNLTDAQQRAFIYKLEDDPSQSSELLSEAKKLNDSQAPK; Engineered HMGB1 binding polypeptide)”: the pKd with HMGB1(red) [2] was 8.00; with HMGB1(disulfide) it was 6.89; with GST-boxA(red), 7.68; in the data set with boxA(disulfide), 6.18. Moreover, the “Tm (° C.)” value in data set [3] stood at 50 °C.

Regarding “ZH17: single-point mutation variant of ZH 01, F13A (VDAKYAKEDWDAAWEIIWLPNLTDAQQRAFIYKLEDDPSQSSELLSEAKKLNDSQAPK; Engineered HMGB1 binding polypeptide)”, in the data set with HMGB1(disulfide), the pKd is 5.17. For the same substance, the “Tm (° C.)” value in data set [3] amounted to 43 °C.

Consider “ZH18: single-point mutation variant of ZH 01, W14A (VDAKYAKEDWDAFAEIIWLPNLTDAQQRAFIYKLEDDPSQSSELLSEAKKLNDSQAPK; Engineered HMGB1 binding polypeptide)”, for which the pKd was 6.54 with HMGB1(red) [2], 5.66 with HMGB1(disulfide) and 6.43 with GST-boxA(red). For the same substance, the “Tm (° C.)” value in data set [3] was 41 °C.

The substance “ZH19: single-point mutation variant of ZH 01, I17A (VDAKYAKEDWDAFWEIAWLPNLTDAQQRAFIYKLEDDPSQSSELLSEAKKLNDSQAPK; Engineered HMGB1 binding polypeptide)” had a pKd in the data set with HMGB1(disulfide) of 5.51. Moreover, the “Tm (° C.)” value in data set [3] worked out at 42 °C.

Turning to “ZH20: single-point mutation variant of ZH 01, W18A (VDAKYAKEDWDAFWEIIALPNLTDAQQRAFIYKLEDDPSQSSELLSEAKKLNDSQAPK; Engineered HMGB1 binding polypeptide)”, the pKd with HMGB1(red) [2] was 7.05; with HMGB1(disulfide) it was 5.82; with GST-boxA(red), 6.89; in the data set with boxA(disulfide), 4.30. In data set [3], the “Tm (° C.)” value was 55 °C.

Take “ZH21: single-point mutation variant of ZH 01, D24A (VDAKYAKEDWDAFWEIIWLPNLTAAQQRAFIYKLEDDPSQSSELLSEAKKLNDSQAPK; Engineered HMGB1 binding polypeptide)”: the pKd with HMGB1(red) [2] is 7.19; in the data set with HMGB1(disulfide), 6.17; in the data set with GST-boxA(red) it was 6.96; with boxA(disulfide), 5.82. Further, the “Tm (° C.)” value in data set [3] was found to be 53 °C.

With “ZH22: single-point mutation variant of ZH 01, A25S (VDAKYAKEDWDAFWEIIWLPNLTDSQQRAFIYKLEDDPSQSSELLSEAKKLNDSQAPK; Engineered HMGB1 binding polypeptide)”, the pKd with HMGB1(red) [2] is 8.05; with HMGB1(disulfide) it was 6.72; with GST-boxA(red), 7.77; with boxA(disulfide), 6.48. Besides, the “Tm (° C.)” value in data set [3] is 46 °C.

On to “ZH23: single-point mutation variant of ZH 01, Q27A (VDAKYAKEDWDAFWEIIWLPNLTDAQARAFIYKLEDDPSQSSELLSEAKKLNDSQAPK; Engineered HMGB1 binding polypeptide)”, for which the negative-log Kd (pKd) with HMGB1(red) [2] was 7.39; with HMGB1(disulfide), 6.06; with GST-boxA(red) it was 7.17; with boxA(disulfide), 6.10. In addition, the “Tm (° C.)” value in data set [3] was 47 °C.

For the substance “ZH24: single-point mutation variant of ZH 01, R28A (VDAKYAKEDWDAFWEIIWLPNLTDAQQAAFIYKLEDDPSQSSELLSEAKKLNDSQAPK; Engineered HMGB1 binding polypeptide)”, the values for the pKd with HMGB1(red) [2] and in the data set with HMGB1(disulfide) were 6.17 and 5.11, respectively. In addition, the “Tm (° C.)” value in data set [3] stood at 47 °C.

Take “ZH25: single-point mutation variant of ZH 01, Y32A (VDAKYAKEDWDAFWEIIWLPNLTDAQQRAFIAKLEDDPSQSSELLSEAKKLNDSQAPK; Engineered HMGB1 binding polypeptide)”: in the data set with HMGB1(disulfide), the pKd was 5.11. Further, the “Tm (° C.)” value in data set [3] was 56 °C.

For the substance “ZH26: single-point mutation variant of ZH 01, E35A (VDAKYAKEDWDAFWEIIWLPNLTDAQQRAFIYKLADDPSQSSELLSEAKKLNDSQAPK; Engineered HMGB1 binding polypeptide)”, the pKd with HMGB1(red) [2] was 6.96; with HMGB1(disulfide) it was 5.62; with GST-boxA(red), 6.66. In addition, in data set [3], the “Tm (° C.)” value came to 56 °C.
